# Data reported in PubChem BioAssay AID1745845 (National Center for Advancing Translational Sciences (NCATS), 2022).
# In all, about 360,000 compounds went through this assay and about 2,600 (0.72%) were called active. This list was built around the results that the source calls inconclusive (neither active nor inactive); the mix of calls is not that of the screen. The call rests on the fitted dose curve; in most records, active means well fitted inhibition curve with a large enough effect; inconclusive means small, poorly fitted or top-dose-only effect; inactive means no such curve, though single readings can be large or run the other way. Potencies beside an inconclusive call are fits to weak or partial responses and may not hold up.
# Assay: Primary qHTS for Inhibitors of ATXN expression; further: nearly all actives have a fitted effect of over 55% in size
# Conditions: HEK-293 ATXN2-luciferase reporter, luminescence, 24 h; activity change, negative = inhibition: at 57 µM (top of the series)
# In short: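 qHTS (up to 57 uM final) was run with 24 h compound exposure of reporter cells at 37 °C. Each well was multiplexed: SteadyGlo luminescence measured ATXN2-luciferase expression after a fluorogenic Gly-Phe-AFC viability readout (25 uM final).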
# On the % scale 0 is the no-effect control and ±100 the full control effect; potency means the concentration at half of the fitted maximal effect; tags describe the fitted curve by direction and shape.
Structure (SMILES),"activity change, negative = inhibition",Potency
CC1(C)CC(=O)C=C(NNC(=O)OC(C)(C)C)C1,inactive: -3.62%,
COc1cc(OC)cc(C(=O)NNC(=O)c2ccccn2)c1,,"inconclusive: 8.44 µM [inhibitor, single point]"
O=C(CSc1nc(Nc2ccccc2)c2ccccc2n1)c1ccc(Cl)cc1,,"inconclusive: 25.1 µM [inhibitor, single point]"
Cc1cc(Cl)c(OCCCNCc2ccccc2)c(Br)c1,,"inconclusive: 12.6 µM [inhibitor, partial curve]"
COc1ccccc1CN1C(=O)[C@@H]2Cc3c([nH]c4ccccc34)C(C)(C)N2C1=O,,"inconclusive: 35.5 µM [inhibitor, single point]"
O=C(NCCCO)C(=O)NCCc1ccc(Cl)cc1,inactive: -3.91%,
COc1cccc(CN(C(=O)Cc2c[nH]c3ccccc23)C(C(=O)NC2CCCCC2)c2ccc(C)o2)c1 (centres undefined),,"inconclusive: 28.2 µM [inhibitor, partial curve, poor fit]"
Oc1cccc(/C=N/NC(=S)Nc2cccnc2)c1O,,"inconclusive: 2.38 µM [inhibitor, partial curve]"
Cn1c(=O)c2c(SCc3cccnc3)nc(CC(C)(C)C)nc2n(C)c1=O,,"inconclusive: 37.7 µM [inhibitor, single point]"
Cc1cccc(Cn2c(CN3CCC(C(=O)NC(C)C)CC3)cc3ccccc32)c1,,"inconclusive: 22.4 µM [inhibitor, single point]"
C[C@@H]1CN([C@H](C)CO)C(=O)c2cccc(NC(=O)Nc3ccc(C(F)(F)F)cc3)c2O[C@H]1CN(C)S(=O)(=O)c1cccs1,,"inconclusive: 39.8 µM [inhibitor, single point]"
COc1ccc(C(NC(=O)C2CCN(CCOc3ccc(Cl)cc3Cl)CC2)c2ccccn2)cc1 (centres undefined),,"inconclusive: 39.8 µM [inhibitor, single point]"
CC(=O)Nc1cc(-c2nn3c(C)nnc3s2)ccc1C,inactive: 8.2%,
CN(C1=C(NC(=O)c2ccccc2)C(=O)c2ccccc2C1=O)C1CCS(=O)(=O)C1 (centres undefined),,"inconclusive: 35.5 µM [inhibitor, single point]"
O=C(/C=C/c1cccc2ccccc12)c1ccncc1,,"inconclusive: 12.6 µM [inhibitor, partial curve, poor fit]"
O=C1C(=C(I)I)c2ccccc2-c2ccccc21,,"inconclusive: 18.9 µM [inhibitor, partial curve, poor fit]"
C=CCC(NCc1ccccc1)c1ccc(OC)cc1 (centres undefined),,"inconclusive: 25.1 µM [inhibitor, single point]"
NCc1csc(Nc2ncccn2)n1,inactive: -4.59%,
COc1ccc(CCNc2ncnc3sc(C)cc23)cc1OC,,"inconclusive: 0.447 µM [inhibitor, partial curve, poor fit]"
CC(Nc1oc(-c2ccc(COc3ccccc3)o2)nc1C#N)c1ccccc1 (centres undefined),,"inconclusive: 15.8 µM [inhibitor, partial curve]"
COc1ccc(C(CCNCc2ccc(N(C)C)cc2)c2ccccc2OC)cc1 (centres undefined),,"inconclusive: 42.3 µM [inhibitor, partial curve, poor fit]"
O=C(O)c1ccc(S(=O)(=O)c2ccc3c(c2)C(=O)N(c2ccccc2[N+](=O)[O-])C3=O)cc1,inactive: -2.02%,

Structure (SMILES),"activity change, negative = inhibition",Potency
C=C1CCC2[C@](C)(CO)[C@H](O)CC[C@@]2(C)[C@@H]1C/C=C1\C(=O)OC[C@H]1O (some centres undefined),,"inconclusive: 39.8 µM [inhibitor, single point]"
Cc1oc(-c2cccs2)nc1CN1CCN(C2CCCC2)C(CCO)C1 (centres undefined),inactive: 1.54%,
COc1ccccc1OCCCN1CCC(C(O)(c2ccccc2)c2ccccc2)CC1,,"inconclusive: 22.4 µM [inhibitor, single point]"
O=C(NNC(=O)c1csc(-c2ccccc2)n1)c1ccccc1,,"inconclusive: 31.6 µM [inhibitor, single point]"
COCCOC(=O)C1=C(C)NC(C)=C(C(=O)OC/C=C/c2ccccc2)C1c1cccc([N+](=O)[O-])c1 (centres undefined),,"inconclusive: 39.8 µM [inhibitor, single point]"
Cc1ccc(NN2C(=O)C=C(c3ccc(Cl)cc3)C2=O)cc1,,active: 25.1 µM
Cc1nc2ccccc2c2oc(C(=O)Nc3ccc(C(C)C)cc3)cc12,,"inconclusive: 22.4 µM [inhibitor, partial curve, poor fit]"
C[C@]12c3[nH]c4ccc(Cl)cc4c3CCN1C(=O)[C@@H](CC(=O)NCC13CC4CC(CC(C4)C1)C3)C[C@@H]2C(=O)N1CCCCC1,,"inconclusive: 28.2 µM [inhibitor, single point]"
CCOc1ccc2c(ccc(/C=C/c3cc(C)c4cccnc4c3O)[n+]2C)c1,,"inconclusive: 2.99 µM [inhibitor, full curve, poor fit]"
Cc1cc(CS(=O)(=O)c2ccccc2)cc(OCc2ccc(CN3CCC[C@H]3CO)cc2)c1,,"inconclusive: 19.3 µM [inhibitor, partial curve]"
CNc1ccc(/C=C2\COc3ccccc3C2=O)cc1[N+](=O)[O-],inactive: 43.5%,
Cc1[nH]n(-c2ccccc2)c(=O)c1N=Nc1c(O)cc(S(=O)(=O)N(C)C)c2ccccc12,,"inconclusive: 3.98 µM [inhibitor, full curve]"
Cc1ccnc(Sc2ccc([N+](=O)[O-])cc2[N+](=O)[O-])n1,,"inconclusive: 39.8 µM [inhibitor, single point]"
C=C1CCC[C@]2(C)C[C@H]3OC(=O)C(CNC(C)CCCC(C)C)[C@H]3CC12 (some centres undefined),,"inconclusive: 23.8 µM [inhibitor, partial curve, poor fit]"
CN(C)CCOC(=O)C1(c2ccccc2)CCCC1,inactive: 4.57%,
CCn1c(/C=N/NC(=O)c2ccc(OC)cc2)nc2ccccc21,,"inconclusive: 14.1 µM [inhibitor, partial curve]"
COc1ccc(/C=C2\SC(=O)NC2=S)cc1OC,inactive: -11%,
S=C(Nc1ccccc1)Nc1nc2ccccc2n1CCOc1ccccc1,,"inconclusive: 39.8 µM [inhibitor, partial curve, poor fit]"
CC(C)(C)c1csc(NNC(=O)c2ccc(Cl)cc2)n1,,"inconclusive: 25.1 µM [inhibitor, single point]"
Cc1ccc(-c2csc(N3CCC(NS(=O)(=O)c4ccc5c(c4)OCCO5)CC3)n2)cc1,,"inconclusive: 20 µM [inhibitor, single point]"
CC(C)Oc1ccc(CNC(=O)C(C)n2ccc3cc(S(=O)(=O)N4CCCCCC4)ccc32)cc1 (centres undefined),inactive: -0.937%,
O=C(NCCN1CCOCC1)c1ccc2c(c1)N(Cc1c(F)cccc1Cl)C(=O)c1ccccc1S2,,"inconclusive: 22.4 µM [inhibitor, partial curve, poor fit]"

Structure (SMILES),"activity change, negative = inhibition",Potency
CCN(CC)c1ccc(-c2n[nH]c(=S)n2-c2ccccc2C)cc1,inactive: -26.9%,
CCOc1ccc(NC(=O)C2CCCN(S(=O)(=O)c3ccc4c(c3)CC(C)N4C(C)=O)C2)cc1 (centres undefined),,"inconclusive: 11.2 µM [inhibitor, partial curve, poor fit]"
O=C(CCn1cnc2onc(-c3ccc(F)cc3)c2c1=O)Nc1cccc(C(F)(F)F)c1,,"inconclusive: 22.4 µM [inhibitor, partial curve, poor fit]"
OC(CN1C2=NCCN2c2ccccc21)c1ccccc1 (centres undefined),inactive: -15.4%,
O=C(COc1nsnc1N1CCOCC1)N/N=C/c1ccccc1O,,"inconclusive: 31.6 µM [inhibitor, single point]"
COc1ccc(N(CC(=O)NCc2ccc3c(c2)OCO3)S(=O)(=O)c2ccccc2[N+](=O)[O-])c(OC)c1,inactive: 2.29%,
COCC(=O)NCC=Cc1ccc2ncnc(Nc3ccc(Oc4ccc(C)nc4)c(C)c3)c2c1,,"inconclusive: 27.3 µM [inhibitor, partial curve]"
COc1cccc(-c2oc3c(c2C#CC2(N)CCCCC2)C(O)CCC3)c1 (centres undefined),,"inconclusive: 35.5 µM [inhibitor, single point]"
CCOC(=O)c1cnc2ccc(OCC)cc2c1NCc1cccnc1,inactive: 10.6%,
O=C(NN=C(c1ccccc1)c1ccccn1)c1ccccc1,,active: 3.98 µM
CCOc1ccc(Nc2ccnc3cc(Cl)ccc23)cc1,inactive: -28.6%,
Cc1c(CN(C)C)c2c(n1Cc1ccccc1)C(=O)c1ccc(Br)cc1-2,,"inconclusive: 28.2 µM [inhibitor, single point]"
Cc1cccn2c(=O)c(/C=C(\C#N)S(=O)(=O)c3ccccc3)c(N3CCC(C(N)=O)CC3)nc12,inactive: -0.999%,
CN(C)S(=O)(=O)c1cccc(C(=O)Nc2cc(S(=O)(=O)N3CCOCC3)ccc2N2CCCC2)c1,inactive: 10.4%,
Cc1ccc([C@@H]2O[C@H](CO)[C@@H](O)[C@H](O)[C@@H]2O)cc1Cc1ccc(-c2ccc(F)cc2)s1,,"inconclusive: 24.3 µM [inhibitor, partial curve, poor fit]"
CCCc1nc(SCC(=O)N2CCc3ccccc3C2)c2ccccc2n1,,"inconclusive: 39.8 µM [inhibitor, partial curve, poor fit]"
CCc1ccc(/C=C2\SC(=S)N(CCCC(=O)Nc3ccccn3)C2=O)cc1,,active: 4.47 µM
COc1cc(/C=C(/C#N)c2nc3ccccc3[nH]2)ccc1OCC(=O)Nc1ccccc1C(C)C,,"inconclusive: 3.16 µM [inhibitor, partial curve, poor fit]"
Cc1ccc2[nH]c(=O)c(CN(CCCN(C)C)C(=O)Nc3ccc(Cl)cc3)cc2c1,,"inconclusive: 14.1 µM [inhibitor, partial curve]"
CCCCCn1c(CCCNC(=O)c2ccccc2OC)nc2ccccc21,,"inconclusive: 22.4 µM [inhibitor, single point]"
